# Laboratory results from PubChem BioAssay AID463173 (ICCB-Longwood Screening Facility, Harvard Medical School, 2010).
# Screen size: about 52,000 compounds; about 4,300 (8.3%) were called active. Cut-off read from the data, not from the text of the source: active = survival mostly below about 52% (no sharp cut-off); inactive = mostly above about 56%. Some of the results follow.
# Tested on: DeltatarO mutant
# Assay: growth inhibition of S. aureus wild type versus tarO mutant, primary screen, teichoic acid synthesis inhibitors, RN4220, OD600 (AID 463173)
# Details: OD600, 18 h, hits give low values, screened at 18.75 µg/mL (by protocol)
row,SMILES,survival
1,COc1ccc(CNCCCSc2nnnn2C)c(OC)c1,inactive: 89%
2,c1ccc(-c2cnnn2-c2ccccc2)cc1,inactive: 87%
3,CCc1nnc(SCc2ccc(F)cc2Cl)c2cc3sc(C)cc3n12,inactive: 87%
4,COc1ccc(NC(=O)C2CCC(CNS(=O)(=O)c3ccc4c(c3)C(C)(C)C(=O)N4C)CC2)cc1 (centres undefined),inactive: 54%
5,CCOc1ccc(Nc2ncnc3c2nc2n3CCCCC2)cc1,inactive: 126%
6,O=C(NCc1ccc2c(c1)OCO2)C1CCN(c2ccc(S(=O)(=O)N3CCCC3)cc2)CC1,inactive: 72%
7,O=C(Nc1nnc(S(=O)(=O)N2CCCCCC2)s1)c1cccc(Br)c1,active: 9%
8,Cc1ccc(-c2noc(-c3ccc(N4CCCCC4C)c([N+](=O)[O-])c3)n2)cc1 (centres undefined),inactive: 78%
9,COc1cc2oc(=O)c(CC(=O)NCc3ccc(OC)c(OC)c3)c(C)c2cc1Cl,inactive: 71%
10,CCCCn1c(=O)c2oc3ccccc3c2n(Cc2cccc(C)c2)c1=O,inactive: 57%
11,Cc1c(C(=O)Nc2ccc(-c3nc4cc(Cl)ccc4o3)cc2)oc2ccccc12,inactive: 104%
12,Cc1c(Cl)cccc1NC(=O)c1cc2sccc2n1Cc1ccc(F)cc1,inactive: 89%
13,COc1ccc(N(C)C(=O)c2nc(-c3cccc(F)c3)n3c2CCCCC3)c(OC)c1,inactive: 74%
14,CC(C)(C)n1nnnc1C(c1cccnc1)N(Cc1ccccc1)Cc1ccco1 (centres undefined),inactive: 89%
15,CCOC(=O)c1ccccc1NC(=O)c1ccc2c(Cl)c3c(nc2c1)CCC3,inactive: 96%
16,Cc1nn(CC(=O)NCC(C)c2ccccc2)c(=O)c2cc3ccccc3n12 (centres undefined),inactive: 77%
17,CCOc1ccc(CNC(=O)C2CCN(S(=O)(=O)c3ccc4c(ccn4C)c3)CC2)cc1,inactive: 101%
18,Clc1ccc(-n2ccc3ccccc32)cc1,inactive: 95%
19,CC(C)OC(=O)/C(C#N)=C\c1cccn1C,inactive: 73%
20,N#CCNC(=O)c1cccc(I)c1,inactive: 89%
21,COc1cccc(Cn2c(=O)cc(C)c3c(C)nn(-c4ccc(C)cc4)c32)c1,inactive: 85%
22,CCOc1ccc(NC(=O)CN2CCN(C3CCCCC3)C(=O)C2=O)cc1,inactive: 62%
23,Cc1ccc(S(=O)(=O)N2CCc3cc(C(=O)NCCc4ccccc4)ccc32)cc1,inactive: 104%
24,Cc1ccc(-c2cc(-c3coc4ccccc4c3=O)c3c(n2)-c2ccccc2OC3)cc1,inactive: 72%

row,SMILES,survival
1,Cc1c(-c2cccc(NC(=O)Nc3ccccc3)c2)nc2ncccn12,inactive: 76%
2,Cc1cc(-c2ccc(S(=O)(=O)NCc3ccccc3Cl)s2)on1,inactive: 128%
3,N#Cc1ccc2c(c1)nc1c3cccc4cccc(c(=O)n21)c43,inactive: 72%
4,CCS(=O)(=O)N1CCC2(CC1)OC(=O)C(C)=C2C(=O)NCc1ccccc1C,inactive: 81%
5,CCCN(CCC)C1=CC(=O)C(C(C)(C)C)=CC1=O,inactive: 103%
6,Cc1c(Cl)cccc1NC(=O)c1ccc2nc(C(C)C)oc2c1,inactive: 80%
7,C=CCn1c(SCC(=O)O)nnc1-c1ccco1,inactive: 108%
8,COC(=O)c1nnn(CC(=O)NC(=O)Nc2ccccc2F)c1C(=O)OC,inactive: 82%
9,Cc1ccc(OCc2nnc(SCC(=O)CC(=O)Nc3ccccc3)o2)cc1,inactive: 87%
10,Cc1noc(NS(=O)(=O)c2ccc(NC(=O)c3ccc(Br)cc3)cc2)c1C,inactive: 74%
11,Cc1c(-c2ccccc2)nc2ccccc2c1C(=O)O,inactive: 95%
12,O=C(CSc1nc2ccccc2nc1Cc1ccccc1)N1CCN(c2ccccc2)CC1,inactive: 77%
13,Cc1cccc(NC(=O)NCCOCCn2c(=O)oc3ccccc32)c1C,inactive: 99%
14,O=C(O)CN=C1NC2(CCCC2)Cc2ccccc21,inactive: 114%
15,CC(=O)Nc1cc(-c2ccccc2)nn1Cc1cccc(Cl)c1,inactive: 57%
16,CCN1CCC(N(Cc2ccc(F)cc2)C(=O)Nc2cccc(C(F)(F)F)c2)CC1,inactive: 99%
17,Cc1ccc(-c2cc(C(=O)N3CCCC3)no2)cc1,inactive: 98%
18,CCc1ccccc1Nc1nn2c(=O)c3ccc(C(=O)Nc4ccc(OC)cc4)cc3nc2s1,inactive: 69%
19,CC(C)n1c(SCC(=O)N(Cc2ccccc2)C(C)(C)C)nc2c1c(=O)n(C)c(=O)n2C,inactive: 83%
20,COc1ccccc1C(=O)Nc1cc(-c2ccc(C)cc2)no1,inactive: 49%
21,COc1ccc(CCNC(=O)CCc2c(C)c3cc4c(C)coc4cc3oc2=O)cc1,inactive: 85%
22,OC(COc1ccc2ccccc2c1)Cn1ccnc1 (centres undefined),inactive: 70%
23,Cc1ccc(Cl)cc1NC(=O)CCCN1C(=O)CCn2nc(-c3cn(C)c4ccccc34)cc21,inactive: 108%
24,CCOc1ccc(CCNC(=O)CCn2c(=O)c3cccn3c3cccnc32)cc1,inactive: 89%

row,SMILES,survival
1,COc1ccc(CCC(=O)NCc2nc3cccnc3n2Cc2ccccc2)cc1,inactive: 88%
2,CC1Cc2cc(S(=O)(=O)CCC(=O)Nc3ccc(Cl)cc3F)ccc2N1C(=O)C1CC1 (centres undefined),inactive: 102%
3,CC(C)Oc1ccc(C(=O)Nc2ccc(-c3nc4ccccc4s3)cc2)cc1,inactive: 79%
4,COc1ccc(-c2nnn(CCC(=O)O)n2)cc1,inactive: 92%
5,CCc1ccccc1NC(=O)C1CCN(S(=O)(=O)c2cc(OC)ccc2OC)CC1,inactive: 102%
6,Cc1ccc(NC(=O)Cn2c(=O)oc3cc(S(=O)(=O)N4CCC(C)CC4)ccc32)cc1Cl,inactive: 126%
7,Cc1cc(NC(=O)N2CCC(CN3CCOCC3)CC2)ccc1Br,inactive: 86%
8,COc1cccc(C2C(=O)N(C3CCCCC3)CC(=O)N2Cc2ccc(Cl)cc2)c1 (centres undefined),inactive: 94%
9,CCNc1nc(Oc2ccc(=O)n(-c3ccccc3)n2)nc(N(C)C)n1,inactive: 84%
10,COc1cccc(-c2nc3c(c(C)nn3-c3ccccc3)c3cc(OC)c(OC)cc23)c1,inactive: 59%
11,CCc1ccc(C2C(C(=O)Nc3ccc(Cl)cc3)=C(C)Nc3ncnn32)cc1 (centres undefined),inactive: 36%
12,Cc1ccc2c(c1)C(=O)OC(C(=O)Nc1ncc(Cc3ccccc3)s1)C2 (centres undefined),inactive: 93%
13,CCC(=O)Nc1ccccc1-c1nc2ccccc2n(C(C)C(=O)Nc2ccc(OC)cc2)c1=O (centres undefined),inactive: 55%
14,CN(c1ccccc1)c1ncnc2c1cnn2C,inactive: 82%
15,Cc1ccc(S(=O)(=O)Nc2cccc(-c3ccc(N4CCCCC4)nn3)c2)s1,inactive: 76%
16,CCOC(=O)C(C)Sc1nnc2ccc3ccccc3n12 (centres undefined),inactive: 86%
17,O=C(OCCN1CCCCC1)c1cc2ccccc2o1,inactive: 85%
18,Cc1ccc(NC(=O)C(=O)NCc2ccc(Cl)cc2)cc1,inactive: 94%
19,O=C(NCCc1ccc(Cl)cc1)c1ccc(CSCc2ccccc2Cl)o1,inactive: 78%
20,Cc1cccc(NC(=O)C2CCCN(S(=O)(=O)c3cccc4nonc34)C2)c1 (centres undefined),inactive: 92%
21,CC(=O)c1cccc(NC(=O)c2nc(-c3ccc(C)cc3)n3c2CCCCC3)c1,active: 34%
22,CCn1c(SCC#N)nnc1-c1cccc(C)c1,inactive: 96%
23,CCOc1ccccc1C(=O)NCc1ccc2c(c1)CCN2C(C)=O,inactive: 86%
24,Cc1ccc(C2c3[nH]c4ccccc4c3CCN2C(=O)Nc2ccc(C)c(C)c2)cc1 (centres undefined),inactive: 62%

row,SMILES,survival
1,Nc1ncnc2nc(SCC(=O)O)[nH]c12,inactive: 86%
2,Cc1ccc(CNCc2c(C(=O)O)n(Cc3ccccc3C)c3cc(C)ccc23)cc1,inactive: 67%
3,O=C(Cn1c(=O)sc2ccccc21)Nc1cccc(Cl)c1,inactive: 83%
4,CCCCNC(=O)c1[nH]c2ccccc2c1Sc1ccc(C)cc1,inactive: 75%
5,COc1cc(OC)c(NC(=O)CCn2cnc3onc(-c4ccc(F)cc4)c3c2=O)cc1Cl,inactive: 72%
6,CCOc1ccc(NC(=O)N(Cc2c[nH]c3ccccc23)C2CCCCC2)cc1,inactive: 74%
7,Cc1oc(-c2cccc(Cl)c2)nc1CN1CCC(C(=O)NCCCN2CCN(c3cccc(Cl)c3)CC2)CC1,inactive: 63%
8,Nc1cc(=O)nc(SCC(=O)Nc2ccc(F)cc2)n1-c1ccc(Cl)cc1,inactive: 88%
9,Cc1ccc(C)c(-c2csc(-c3c(N)c(C(=O)c4ccc5c(c4)OCO5)n4ccccc34)n2)c1,inactive: 105%
10,CCN(CC)CCNC(=O)C1CCCN(c2ncnc3onc(C)c23)C1 (centres undefined),inactive: 78%
11,Cc1c(C(N)=O)nnn1-c1ccc(Br)cc1,inactive: 95%
12,COc1ccc(CCNC(=O)Cn2ncc3c(C)n(Cc4ccccc4F)c(C)c3c2=O)cc1OC,inactive: 83%
13,COc1ccc(CCNC(=O)Cn2nc(C)n3c(cc4occc43)c2=O)cc1OC,inactive: 84%
14,CCOC(=O)c1c(S(=O)(=O)N2CCCC(C(=O)N3CCN(c4ccc(F)cc4)CC3)C2)c(C)n(C)c1C (centres undefined),inactive: 81%
15,Cc1ccc2nc(N(Cc3cccnc3)C(=O)C3CCCCC3)sc2c1,inactive: 98%
16,COc1ccc(Br)cc1C1CC(=O)Nc2c1c(C)nn2-c1nc(C)cc(C)n1 (centres undefined),inactive: 58%
17,CCn1cc(C(=O)OCC(=O)Nc2cc(Cl)ccc2OC)c(=O)c2ccc(C)nc21,inactive: 81%
18,Cc1cccc(NC(=O)Cn2c(=O)oc3cc(S(=O)(=O)NCc4ccccc4)ccc32)c1,inactive: 95%
19,COc1ccc(NC(c2ccc(F)cc2)c2nnc(-c3ccccc3Cl)o2)cc1Cl (centres undefined),inactive: 78%
20,CC(NC(=O)CN(C)S(=O)(=O)c1ccc2c(c1)c(=O)n(C)c(=O)n2C)c1ccccc1 (centres undefined),inactive: 88%
21,Cc1oc(-c2ccc(C(=O)NCc3ccc(N(C)C)cc3)cc2)nc1COc1ccccc1,inactive: 61%
22,Cc1ccc2c(c1)c(=O)c(C(=O)c1ccncc1)cn2CC(=O)Nc1c(C)cccc1C,inactive: 83%
